From PubChem BioAssay AID602340 (Broad Institute, 2012)
Screen size: about 330,000 compounds; about 2,600 (0.79%) were called active. The inconclusive results got no clear call from the source; some entries with a clear call stand among them for comparison.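 Rule for the calls: active = mean ATP rescue above about 67%, or every replicate alone reaching that limit (limit read from the data, passing the limit was not always enough); inconclusive = no clear call, values can overlap the other calls; inactive = mean under the limit and some replicate under it.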

Assay: suppressors of statin myotoxicity in C2C12 myotubes, primary screen, cell-based, single point, plate reader (AID 602340);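 note: myotubes were challenged with 10 µM simvastatin during compound exposure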
Details: C2C12 myotubes + simvastatin, ATP luminescence, 48 h; at 7.49 µM; hits give high values; scaled: DMSO 0, geranylgeraniol control 100
In the case of `C[C@H]1CN([C@@H](C)CO)C(=O)Cc2cc(NC(=O)CCCCCC(=O)Nc3ccccc3N)ccc2O[C@H]1CN(C)CC1CCCCC1`, the rescue of ATP level is reported as active: 147%. In the case of `CCCC(=O)Nc1ccc2c(c1)OC[C@@H](C)N(Cc1ccc(-c3ccccn3)cc1)C[C@H](C)[C@H](OC)CN(C)C2=O`, the rescue of ATP level is reported as inactive: 49.1%. In the case of `C[C@H](CO)N1C[C@H](C)[C@@H](CN(C)Cc2ccc(C(=O)O)cc2)Oc2c(NS(=O)(=O)c3cn(C)cn3)cccc2C1=O`, the rescue of ATP level is reported as inconclusive: 69.3%. With `O=C(C[C@H]1CC[C@@H]2[C@H](COC[C@@H](O)CN2Cc2ccc(Oc3ccccc3)cc2)O1)N1CCCCC1` the rescue of ATP level was active: 71%. For `O=C(Nc1cccc(S(=O)(=O)C(F)F)c1)c1ccc(S(=O)(=O)N2CCOCC2)cc1`, the rescue of ATP level was active: 95.4%. For `O=C(c1ccc([N+](=O)[O-])o1)N1CCN(c2nc3c(Cl)cccc3s2)CC1`, the rescue of ATP level was inconclusive: 72.2%. In the case of `CC(C)c1[nH]nc2c1C(C(C)C)C(C#N)=C(N)O2` (stereo not drawn), the rescue of ATP level is reported as active: 71.9%. In the case of `Cn1ncc(N=Cc2ccccc2)c1C(N)=O`, the rescue of ATP level is reported as inconclusive: 91.2%. With `O=C(C1CCOCC1)N1CC[C@@H]2[C@H]1c1cc(Br)ccc1N[C@@H]2CO` the rescue of ATP level was inactive: 16.6%. For `C[C@H]1CN([C@@H](C)CO)C(=O)c2cc(C3=CCCCC3)cnc2O[C@H]1CN(C)C(=O)C1CCOCC1`, the rescue of ATP level was inconclusive: 74.5%. In the case of `C[C@@H]1CN([C@H](C)CO)C(=O)Cc2cc(NC(=O)Cc3cn(C)c4ccccc34)ccc2O[C@@H]1CN(C)S(=O)(=O)c1ccc(F)cc1`, the rescue of ATP level is reported as inconclusive: 65.1%. For `CCc1nc2oc3cc(OC)ccc3c(=O)c2c(=O)n1Cc1ccccc1`, the rescue of ATP level was inconclusive: 74.9%. For `C[C@@H]1CN([C@@H](C)CO)C(=O)c2cccc(N(C)C)c2O[C@@H]1CN(C)Cc1ccc(Oc2ccccc2)cc1`, the rescue of ATP level was inconclusive: 79.1%. With `C#CCOCCOCCOCCNc1nc(N2CCOCC2)nc(N2CCN(C(=O)[C@H](Cc3cc4ccccc4[nH]3)n3cc([C@@H](N)C(C)CC)nn3)CC2)n1` (stereo partly drawn) the rescue of ATP level was inactive: 1.69%. With `Cc1nnc2sc(-c3ccc(N(C)C)cc3)nn2c1=O` the rescue of ATP level was inactive: -1.7%. With `CS(=O)(=O)N1CCc2cc(C(=O)N3CCN(c4ccc(F)cc4)CC3)ccc21` the rescue of ATP level was inactive: -9.3%. For `Cc1ccc(S(=O)(=O)N2CCC(C(=O)NCc3cccnc3)CC2)cc1`, the rescue of ATP level was inactive: 6.43%. In the case of `Cc1cc(S(=O)(=O)N2CCCCC2CCNC(=O)C(=O)NCCN2CCOCC2)ccc1F` (stereo not drawn), the rescue of ATP level is reported as inactive: -11.3%. With `O=C(c1ccc([N+](=O)[O-])cc1)N(Cc1ccc(Br)cc1)N1C(=O)CCCC1=O` the rescue of ATP level was inconclusive: 71.2%. In the case of `C[C@H](CO)N1C[C@H](C)[C@@H](CN(C)S(=O)(=O)c2cn(C)cn2)Oc2ccc(NC(=O)Nc3ccc(C(F)(F)F)cc3)cc2C1=O`, the rescue of ATP level is reported as inconclusive: 66.3%. With `CCOC(=O)CNc1c(-c2ccccc2)nc2ccc(Cl)cn12` the rescue of ATP level was active: 98.5%. For `CNC[C@@H]1Oc2c(NC(=O)Nc3ccccc3)cccc2C(=O)N([C@H](C)CO)C[C@@H]1C`, the rescue of ATP level was inactive: 28.3%. With `O=C(O)CC1SC(=Nc2ccccc2)N(c2ccccc2)C1=O` (stereo not drawn) the rescue of ATP level was active: 115%. With `O=C(NC1CCSC1=O)C1CCCCC1` (stereo not drawn) the rescue of ATP level was inconclusive: 8.43%. With `O=S(=O)(c1ccc(Cl)cc1)N1CCN(C2CCN(Cc3ccccc3)CC2)CC1` the rescue of ATP level was inconclusive: 72.4%. For `Cc1ccc2nc(N3C(=O)C(O)=C(C(=O)c4ccco4)C3c3ccc(C)o3)sc2c1` (stereo not drawn), the rescue of ATP level was inconclusive: 66.6%. For `COc1ccc(S(=O)(=O)Nc2ccc3c(c2)C(=O)N([C@H](C)CO)C[C@@H](C)[C@H](CN(C)S(=O)(=O)c2ccc(F)cc2)OCCCC[C@@H](C)O3)cc1`, the rescue of ATP level was inconclusive: 67.8%. In the case of `CN(C)CCCNc1nc(N)c([N+](=O)[O-])c(NCCO)n1`, the rescue of ATP level is reported as active: 87.3%. For `COc1cccc(-c2cnc3c(c2)C(=O)N([C@H](C)CO)C[C@H](C)[C@H](CN(C)Cc2cccc(C)c2)O3)c1`, the rescue of ATP level was active: 117%. With `CC(=O)NS(=O)(=O)c1ccc(NC(=O)c2ccccn2)cc1` the rescue of ATP level was inconclusive: 4.6%. In the case of `C[C@H]1CN([C@@H](C)CO)S(=O)(=O)c2ccc(C3=CCCC3)cc2O[C@H]1CN(C)C(=O)Nc1ccc2c(c1)OCO2`, the rescue of ATP level is reported as inconclusive: 65.8%. For `O=C1c2ccccc2C2(c3ccccc3)N1CCN2C(=O)C(Cl)(Cl)Cl` (stereo not drawn), the rescue of ATP level was inconclusive: 38.6%. With `CCCCC1=CC2=C(c3ccco3)C(=O)C(C)(OC(=O)c3ccc(OC)cc3)C(=O)C2=CN1CC(C)C` (stereo not drawn) the rescue of ATP level was inconclusive: 69.7%. For `N#Cc1ccccc1/C=N/Nc1nc(-c2ccccc2)c2cc(Br)ccc2n1`, the rescue of ATP level was active: 98.9%. With `Cc1cc(C)cc(N2C(=O)C=CC2=O)c1` the rescue of ATP level was inconclusive: 69%. With `COc1ccc(NCc2ccc3c(c2)OCO3)cc1Cl` the rescue of ATP level was inconclusive: 69.7%. With `Cc1ccc(C(C)n2cc(C(=O)NCc3ccncc3)nn2)cc1` (stereo not drawn) the rescue of ATP level was inconclusive: 69.9%. For `O=C1COc2ccc(-c3csc(NCC4CCCO4)n3)cc2N1` (stereo not drawn), the rescue of ATP level was inconclusive: 74%. For `COCCNC(=O)c1onc(CSc2cc(C)ccc2C)c1C(=O)O`, the rescue of ATP level was inactive: 1.52%. For `C[C@H](CO)N1C[C@H](C)[C@H](CN(C)Cc2ccc3c(c2)OCO3)Oc2ccc(NC(=O)CCCCCC(=O)Nc3ccccc3N)cc2CC1=O`, the rescue of ATP level was active: 103%. For `C[C@H]1CN([C@@H](C)CO)C(=O)Cc2cc(NC(=O)CCC(F)(F)F)ccc2O[C@@H]1CN(C)Cc1ccc(Oc2ccccc2)cc1`, the rescue of ATP level was inconclusive: 70.4%. In the case of `C[C@H](CO)N1C[C@H](C)[C@H](CN(C)S(=O)(=O)c2ccccc2)Oc2ncc(C#Cc3ccc(F)cc3)cc2C1=O`, the rescue of ATP level is reported as inconclusive: 71%. In the case of `C[C@@H]1CN([C@@H](C)CO)C(=O)c2cc(NC(=O)C3CCCCC3)ccc2O[C@@H]1CN(C)Cc1ccc(Cl)c(Cl)c1`, the rescue of ATP level is reported as inconclusive: 80.3%. With `O=C(NNC(=O)c1ccncc1)Nc1ccc(Br)cc1` the rescue of ATP level was inconclusive: 92.1%. For `C=CCN(c1ccccc1OC)S(=O)(=O)c1cccc(C(=O)OC2CCOC2=O)c1` (stereo not drawn), the rescue of ATP level was active: 114%. In the case of `C[C@H]1CN([C@@H](C)CO)C(=O)Cc2cc(N(C)C)ccc2O[C@@H]1CN(C)Cc1ccc(Cl)c(Cl)c1`, the rescue of ATP level is reported as inconclusive: 72.5%. With `Cc1noc(C)c1S(=O)(=O)N(C)C[C@H]1Oc2ccc(NC(=O)Nc3cccc4ccccc34)cc2CC(=O)N([C@H](C)CO)C[C@@H]1C` the rescue of ATP level was inconclusive: 71.5%. In the case of `Cc1sc2nc3ccc(N4CCCCC4)nn3c(=O)c2c1C`, the rescue of ATP level is reported as active: 113%. In the case of `CC(Nc1ccc(Cl)cc1)c1cc(Cl)ccc1O` (stereo not drawn), the rescue of ATP level is reported as inconclusive: 75.1%. In the case of `COc1ccc(C(=O)NCC(=O)N2CCN(c3ccc(Cl)cc3)CC2)cc1`, the rescue of ATP level is reported as inconclusive: -0.849%. For `COc1ccc(NC(=O)c2ccc(N3C(=O)C4CC=C(Cl)CC4C3=O)cc2)cc1` (stereo not drawn), the rescue of ATP level was inactive: -15.9%. For `COC(=O)NNC(=O)COc1ccc(Cl)cc1`, the rescue of ATP level was active: 93.6%. For `C[C@H]1CCCCO[C@H](CN(C)C(=O)C2CCCCC2)[C@@H](C)CN([C@@H](C)CO)C(=O)c2cc(NC(=O)NC3CCCCC3)ccc2O1`, the rescue of ATP level was inconclusive: 65%. With `CCOc1ccc(CCNC(=O)c2ccc(CS(=O)Cc3cccc(Cl)c3)o2)cc1` (stereo not drawn) the rescue of ATP level was inconclusive: 85.6%. With `CN(C)Cc1c(O)ccc2c1O/C(=C\C=C\c1ccccc1)C2=O` the rescue of ATP level was inconclusive: 67.9%. In the case of `Cc1cccc(S(=O)(=O)N(C)C[C@H]2OCc3ccccc3-c3c(n(C)c4ccccc34)C(=O)N([C@@H](C)CO)C[C@H]2C)c1`, the rescue of ATP level is reported as inconclusive: 65.5%. In the case of `COc1cccc(C#Cc2ccc3c(c2)O[C@@H](CN(C)C(=O)CN2CCOCC2)[C@H](C)CN([C@@H](C)CO)S3(=O)=O)c1`, the rescue of ATP level is reported as inconclusive: 67.8%. In the case of `COc1ccc(C(=O)OCC(=O)NC2CCCC2)c(OC)c1OC`, the rescue of ATP level is reported as inconclusive: -12.3%. For `O=[N+]([O-])c1ccc(N/N=C/c2c[nH]c3ccccc23)cc1`, the rescue of ATP level was inconclusive: 86.8%. In the case of `O=C(Nc1cc(-c2ccccc2)nn1-c1ccccc1)c1ccccc1F`, the rescue of ATP level is reported as inconclusive: 65.4%. In the case of `Cc1ccc(/C=C/C(=O)O)cc1S(=O)(=O)Nc1ccccc1C(=O)O`, the rescue of ATP level is reported as inactive: -1.26%. With `O=C1/C(=C\c2cccc(O)c2O)SC(=S)N1Cc1ccccc1` the rescue of ATP level was inconclusive: 65.1%. In the case of `Cc1cccc(OCC(=O)Nc2nnc(S(=O)(=O)N3CCC(C)CC3)s2)c1`, the rescue of ATP level is reported as inactive: -7.99%. With `COC(=O)c1ccc(C23CC4(C2)[C@H](CN(Cc2cccnc2)[C@@H]4c2ccccc2)C3c2ccccc2)cc1` (stereo partly drawn) the rescue of ATP level was inconclusive: 82.7%. For `CCOC(=O)c1ccc(N/C=C2/CCCC(C)C2=O)cc1` (stereo not drawn), the rescue of ATP level was inconclusive: 80.9%. With `CC(C)OC(=O)N(C)C[C@@H]1OCc2ccccc2-c2c(n(C)c3ccccc23)C(=O)N([C@H](C)CO)C[C@H]1C` the rescue of ATP level was inconclusive: 67.9%. With `O=C(Cc1ccccc1)N/N=C/c1ccc([N+](=O)[O-])s1` the rescue of ATP level was inconclusive: 77.2%. For `CC(C)NC(=O)Nc1ccc2c(c1)CC(=O)N([C@H](C)CO)C[C@@H](C)[C@@H](CN(C)Cc1ccc(Cl)c(Cl)c1)O2`, the rescue of ATP level was inactive: 15%. With `COc1ccc(CN2C(=O)CCC2(C)C(=O)NCc2cccnc2)c(OC)c1` (stereo not drawn) the rescue of ATP level was active: 92.2%. For `Cc1noc(C)c1S(=O)(=O)N(C)C[C@H]1Oc2ccc(NC(=O)CCC(F)(F)F)cc2CC(=O)N([C@H](C)CO)C[C@H]1C`, the rescue of ATP level was inactive: 4.93%. In the case of `COCC(O)CSc1c([N+](=O)[O-])nc(C)n1Cc1ccc(OC)c([N+](=O)[O-])c1` (stereo not drawn), the rescue of ATP level is reported as inconclusive: 66.2%. With `CCCCNC(=O)c1ccc(CS(=O)(=O)c2cccc(C(F)(F)F)c2)o1` the rescue of ATP level was active: 144%. With `CCOC(=O)/C(C#N)=C/c1c(N2CCN(c3ccc(OC)cc3)CC2)nc2c(C)cccn2c1=O` the rescue of ATP level was inconclusive: 25.8%.
